Assay results reported in PubChem BioAssay AID1347417 (National Center for Advancing Translational Sciences (NCATS), 2020).
The campaign covered roughly 120,000 compounds. About 5,300 (4.4%) were called active. The inconclusive results got no clear call from the source; some entries with a clear call stand among them for comparison. The call rests on the fitted dose curve; in most records, active means well fitted inhibition curve with a large enough effect; inconclusive means small, poorly fitted or top-dose-only effect; inactive means no such curve, though single readings can be large or run the other way. Potencies of inconclusive entries are doubtful fits and often do not repeat.

Experiment: qHTS Primary assay for Inhibitors of Plasmodium falciparum Dd2 growth in vitro; further: nearly all actives have a fitted effect of over 65% in size;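 on activity, negative = inhibition: plate controls were DMSO vehicle for no effect and reference drug for full effect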
Settings: P. falciparum Dd2 growth, SYBR Green, 72 h; activity, negative = inhibition: at 28.9 µM (top of the series) unless noted; series mostly up to 28.9 µM
In short: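 Infected erythrocytes (Dd2, 0.3% parasitemia, 2.5% hematocrit final) are added to compound in RPMI-1640/Albumax II medium, grown 72 h at 37C in low oxygen, then lysed with saponin/Triton-X containing SYBR Green and read by fluorescence.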
Potency means the concentration at half of the fitted maximal effect; tags describe the fitted curve by direction and shape.

| SMILES | activity, negative = inhibition | Potency | outcome |
| --- | --- | --- | --- |
| COCc1nc(C2CC(NC(=O)CN3C(=O)CN(C)C3=O)C2)cc(=O)[nH]1 (stereo not drawn) | inactive: -11.7% | – | – |
| O=C(CCC[C@@H]1[C@H]2CCCN3CCC[C@@H](CN1C(=O)c1ccsc1)[C@@H]23)NCC1CC1 | – | inconclusive: 20 µM [inhibitor, single point] | – |
| CC(C)c1ccc(C2NC(=O)c3n[nH]c(-c4cccs4)c32)cc1 (stereo not drawn) | – | – | inactive |
| COc1ccc(Cl)cc1S(=O)(=O)NCc1ccc2c(c1)CCN2C(=O)c1cccc(C)c1 | – | inconclusive: 10 µM [inhibitor, single point] | – |
| O=C1c2cc(N3CCOCC3)nc(-c3cnc4[nH]ccc4c3)c2CN1CC(F)(F)F | – | inconclusive: 3.98 µM [inhibitor, partial curve, poor fit] | – |
| Cn1nccc1C(=O)N1CCC2(CC1)NCCc1c2[nH]c2ccccc12 | – | inconclusive: 0.316 µM [inhibitor, full curve, poor fit] | – |
| Cc1ccc(C(C)C)c(OCC(O)CN2CCN(c3ccccc3F)CC2)c1 (stereo not drawn) | – | inconclusive: 17.8 µM [inhibitor, single point] | – |
| CCn1cc(S(=O)(=O)N2CCCC(Cc3noc(-c4cnccn4)n3)C2)cn1 (stereo not drawn) | – | inconclusive: 5.01 µM [inhibitor, single point] | – |
| Cc1cc(OC(C)C(=O)Nc2cccc(-c3nc4ccccc4o3)c2)cc(C)c1Cl (stereo not drawn) | – | inconclusive: 11.2 µM [inhibitor, single point] | – |
| CCN(CC)c1ccc(NC(=O)c2cnn(-c3ccccc3)c2-n2cccc2)c(C)c1 | – | inconclusive: 17.8 µM [inhibitor, single point] | – |
| CC(C)(C)CC(=O)N1CCC(N2C(=O)CCC2C(=O)NCc2ccccc2)CC1 (stereo not drawn) | – | inconclusive: 0.224 µM [inhibitor, full curve] | – |
| CCOc1ccc(N2CC(c3nc4ccccc4n3CCOc3ccccc3OC)CC2=O)cc1 (stereo not drawn) | – | active: 12.6 µM | – |
| O=C1CC(c2nc(-c3ccccc3)no2)CN1c1ccccc1 (stereo not drawn) | inactive: 53.7% | – | – |
| Cc1cc2ncc(C(=O)NCc3cccc(C(F)(F)F)c3)cn2n1 | – | inconclusive: 11.2 µM [inhibitor, partial curve] | – |
| CCc1nc2ccc(C(=O)NCc3cc(OC)ccc3OC)cc2nc1CC | – | inconclusive: 17.8 µM [inhibitor, single point] | – |
| CCc1ccc(CNc2ccc3c(c2)ncn3C(C)(C)C)cc1 | – | inconclusive: 12.6 µM [inhibitor, single point] | – |
| C#C[C@H]1CN2CC[C@H]1C[C@@H]2CNCc1ccc(F)c(F)c1 | – | inconclusive: 0.708 µM [inhibitor, full curve, poor fit] | – |
| Cc1cccc(NS(=O)(=O)c2ccc3c(c2)CC(C)N3C(=O)C2CCC2)c1C (stereo not drawn) | – | inconclusive: 1.58 µM [inhibitor, partial curve, poor fit] | – |
| Cc1cc(C)n(CCC(=O)N2CCC3(CC2)CC(OCC2CC2)CCO3)n1 (stereo not drawn) | – | inconclusive: 5.01 µM [inhibitor, partial curve] | – |
| CN(C)CCNC(=O)C1(C)CN(Cc2ccccc2)Cc2ccc(N3CCOCC3)nc21 (stereo not drawn) | – | inconclusive: 2.24 µM [inhibitor, partial curve, poor fit] | – |
| O=C(Nc1ccc([C@@H](O)[C@H]2COCC(=O)N2Cc2ccc(F)cc2)cc1)c1ccnc(Cl)c1 | – | inconclusive: 10 µM [inhibitor, partial curve] | – |

| SMILES | activity, negative = inhibition | Potency | outcome |
| --- | --- | --- | --- |
| N#Cc1ccc(O[C@@H]2CCOC[C@H]2NC(=O)CCc2cc(=O)[nH]o2)cc1 | inactive: -16.4% | – | – |
| CC[C@H]1CN(S(=O)(=O)c2ccc(OC)cc2)CC[C@H]1CC(=O)N(C)CC#N | – | inconclusive: 11.2 µM [inhibitor, single point] | – |
| CC(C)(N)C(=O)N1CCC(n2nccc2NC(=O)c2cccc(F)c2)CC1 | inactive: -8.33% | – | – |
| CCn1cc(C(=O)NCCCOC)c(=O)c2cc(S(=O)(=O)N3CCc4ccccc4C3)ccc21 | – | inconclusive: 20 µM [inhibitor, single point] | – |
| CCOc1nccn2c(-c3ccc(CN4CCN(C(C)=O)CC4)cc3)cnc12 | – | inconclusive: 15.8 µM [inhibitor, partial curve, poor fit] | – |
| CO[C@H]1C(=O)N(C(C)C)[C@H]1C1CCN(Cc2cccc(C#N)c2)CC1 | – | active: 10 µM | – |
| Cn1cnnc1-c1nn(C)c2c1CN(C(=O)c1nn(C)c3ccccc13)CC2 | – | inconclusive: 3.98 µM [inhibitor, partial curve, poor fit] | – |
| Cc1ccc(-c2c(C(=O)NCCc3ccccc3)oc(=O)c3ccccc23)cc1 | – | inconclusive: 14.1 µM [inhibitor, partial curve, poor fit] | – |
| COc1ccc(C2(C(=O)N3CCCN(S(=O)(=O)c4ccccc4)CCC(=O)NCC3)CC2)cc1 | – | inconclusive: 10 µM [inhibitor, single point] | – |
| COc1ccc(-c2cc(C(=O)NCC(F)(F)F)c3c(C4CCCN4)nn(C)c3n2)cc1 (stereo not drawn) | – | inconclusive: 12.6 µM [inhibitor, single point] | – |
| C#CCNC(=O)[C@H]1C[C@@H](O)[C@H](O)[C@@H]2N=C(Nc3cccc(C(F)(F)F)c3)S[C@@H]21 | – | – | inactive [at 44.1 µM] |
| COc1ccc(NS(=O)(=O)c2cc3c(cc2C)N(C(C)=O)CCO3)cc1 | – | inconclusive: 17.8 µM [inhibitor, single point] | – |
| CNC(=O)[C@H]1C[C@H](Oc2ccccc2)CN1C(=O)c1ccc(Cc2c(C)noc2C)o1 | inactive: -8.41% | – | – |
| CC(C)CCNC(=O)Cn1ccn2nc(-c3ccc(F)cc3)c(CO)c2c1=O | – | – | inactive |
| CC(C)CN[C@@H]1C[C@H](COc2ccc(S(C)(=O)=O)cc2)[C@@H](O)[C@H]1O | inactive: 0.101% [at 44.1 µM] | – | – |
| COc1ccc(-c2nc3ccccc3n3c(-c4ccccc4)c4c(=O)n(C)c(=O)n(C)c4c23)cc1OC | – | inconclusive: 3.98 µM [inhibitor, single point] | – |
| CCOc1ccccc1CN1CCC2(CCN(C(=O)c3cccc(Cl)c3)CC2)Oc2ccccc21 | – | inconclusive: 3.16 µM [inhibitor, partial curve, poor fit] | – |
| O=c1oc2c3c(ccc2c2ccccc12)OCN(Cc1ccc(Cl)cc1)C3 | – | active: 10 µM | – |
| COCCNc1ncccc1-c1cc(-c2ccccc2)nc2c(C)noc12 | – | inconclusive: 17.8 µM [inhibitor, partial curve, poor fit] | – |
| COCC1CN(C2CCC2)CC12CCN(C(=O)Cn1cccn1)CC2 (stereo not drawn) | – | – | inactive |
| COc1ccc(OC)c(-n2nnc(-c3nc(-c4cc(OC)c(OC)c(OC)c4)no3)c2C)c1 | – | inconclusive: 2 µM [inhibitor, full curve] | – |

| SMILES | activity, negative = inhibition | Potency | outcome |
| --- | --- | --- | --- |
| COc1ccccc1-c1ccc2ncc(Nc3ccccc3F)n2n1 | – | inconclusive: 3.55 µM [inhibitor, single point] | – |
| COCCOc1ccc2c(n1)CCN(C(=O)c1cccnc1)C2 | inactive: 28.9% | – | – |
| CC(C)c1nc(-c2ccc(OC3CCN(C(=O)c4cc(F)ccc4F)C3)cc2)no1 (stereo not drawn) | – | inconclusive: 1.41 µM [inhibitor, partial curve] | – |
| O=C1NCCCCCN(C(=O)NC2CCCCC2)[C@@H]2C[C@@H](C(=O)N3CCc4ccccc4C3)C[C@H]12 | – | active: 8.91 µM | – |
| Cc1cc(C)cc(-c2ccc(CN3CC4CCC(C3)N4c3ccc(C(F)(F)F)cc3)cc2)c1 | – | inconclusive: 12.6 µM [inhibitor, single point] | – |
| COc1cc(CNC(=O)CCC2CCN(S(=O)(=O)c3ccccc3)CC2)cc(OC)c1 | – | inconclusive: 20 µM [inhibitor, single point] | – |
| O=C(Cc1cccs1)NC1CCCc2c1[nH]c1c(Cl)cccc21 (stereo not drawn) | – | inconclusive: 12.6 µM [inhibitor, single point] | – |
| Cc1cc2ncc(C(=O)N3CCN(c4ncccn4)CC3)cn2n1 | inactive: -3.76% [at 44.1 µM] | – | – |
| CNc1nccc(N2CCC(CC(=O)NCCCN3CCc4ccccc4C3)CC2)n1 | – | inconclusive: 7.94 µM [inhibitor, partial curve] | – |
| COc1cccc(-c2noc(CC3CCN(C(=O)c4cc(Cl)ccc4F)CC3)n2)c1 | – | inconclusive: 11.2 µM [inhibitor, single point] | – |
| CC(=O)N1c2ccccc2C(C)(c2ccc(C)cc2)CC1(C)C (stereo not drawn) | – | inconclusive: 11.2 µM [inhibitor, single point] | – |
| O=C1NC(=NC2CCCC2)C2(CCN(CC3CCCCC3)CC2)N1c1cc(F)cc(F)c1 | – | inconclusive: 11.2 µM [inhibitor, single point] | – |
| Fc1ccc(-c2cnc([C@@H]3COCCN3CC3CC3)[nH]2)cc1 | – | inconclusive: 31.6 µM [inhibitor, single point] | – |
| COc1cccc(-c2ccccc2NC(=O)C2CCN(c3nccnc3C)CC2)c1 | – | inconclusive: 17.8 µM [inhibitor, single point] | – |
| CN1C(=O)c2ccccc2Sc2ccc(NC(=O)N3CCN(c4ccccc4)CC3)cc21 | – | inconclusive: 11.2 µM [inhibitor, single point] | – |
| COc1cccc(Nc2ccc3c(n2)C(C)(C(=O)NCCc2ccccn2)CN(C)C3)c1 (stereo not drawn) | – | active: 3.16 µM | – |
| CCn1nc(-c2ccccc2SC)nc1N(C)C | inactive: 3.08% | – | – |
| COc1cc2c(cc1OC)C(COc1ccc3c(C)cc(=O)oc3c1)N(C(=O)c1ccccc1C)CC2 (stereo not drawn) | – | inconclusive: 2 µM [inhibitor, full curve, poor fit] | – |
| O=C(CCc1nc(-c2ccco2)no1)N[C@@H]1CCOC[C@H]1OCC1CCC1 | inactive: -11.6% | – | – |
| COc1cc(CN2CCC(C)(NC(C)=O)CC2)cc(-c2ccc3[nH]ncc3c2)c1 | – | inconclusive: 31.6 µM [inhibitor, single point] | – |
| CCc1ccc(CNC(=O)C2CCCN(S(=O)(=O)c3ccc4c(ccn4C)c3)C2)cc1 (stereo not drawn) | – | inconclusive: 11.2 µM [inhibitor, partial curve, poor fit] | – |
